In the antibiotic and cytotoxicity screens of Wong et al. (2023):
Some of the results follow.

Legend:
HSkMC = human skeletal muscle cells; experiment: cytotoxicity call (relative viability < 0.9); conditions: 10 µM
HepG2 = experiment: cytotoxicity call (relative viability < 0.9); conditions: 10 µM
S. aureus RN4220 = experiment: growth inhibition call (relative growth <= 0.2); conditions: 50 µM

SMILES	cytotoxicity call (HSkMC)	cytotoxicity call (HepG2)	growth inhibition call (S. aureus RN4220)
CC(C)NC(=O)N1Cc2cc(C(=O)NC3Cc4ccccc4C3)nc(-c3cccc(-c4cccnc4)c3)c2[C@H]1CCO	active	inactive	inactive
C[C@@H]1CCCCO[C@@H](CN(C)Cc2ccc(C(=O)O)cc2)[C@H](C)CN([C@H](C)CO)C(=O)c2cc(NS(=O)(=O)c3ccc(F)cc3)ccc2O1	inactive	inactive	inactive
C[C@H]1CCCCO[C@@H](CN(C)C(=O)Nc2ccc(C(F)(F)F)cc2)[C@@H](C)CN([C@@H](C)CO)C(=O)c2cc(NS(=O)(=O)c3ccccc3)ccc2O1	inactive	active	inactive
CCCc1ncc(C[n+]2ccccc2C)c(N)n1.[Cl-]	inactive	inactive	inactive
C=CCOC(=O)[C@H]1[C@@H]2C(=O)O[C@@H](c3ccccc3)[C@@H](c3ccccc3)N2[C@@H](c2ccc(OCCOC(=O)[C@H]3C[C@H]4C(=O)N[C@@H](CC(C)C)C(=O)N4[C@H]3c3ccc(O)cc3)cc2)[C@]12C(=O)Nc1ccc(I)cc12	inactive	inactive	inactive
Cc1ccc(-c2ccc3c(c2)O[C@@H](CN(C)C(=O)CN(C)C)[C@H](C)CN([C@H](C)CO)S3(=O)=O)cc1	inactive	inactive	inactive
C[C@@H]1CCCCO[C@@H](CN(C)C(=O)C2CCCCC2)[C@H](C)CN([C@H](C)CO)C(=O)c2cc(NC(=O)Nc3ccc(F)cc3)ccc2O1	inactive	inactive	inactive
Cc1noc(C)c1S(=O)(=O)N(C)C[C@@H]1Oc2ccc(NS(C)(=O)=O)cc2CC(=O)N([C@H](C)CO)C[C@H]1C	inactive	inactive	inactive
COc1ccc(S(=O)(=O)Nc2ccc3c(c2)C(=O)N([C@H](C)CO)C[C@H](C)[C@@H](CN(C)C(=O)CCC(F)(F)F)OCCCC[C@@H](C)O3)cc1	inactive	inactive	inactive
CO[C@H]1CN(C)C(=O)c2cc(NS(=O)(=O)CC(F)(F)F)ccc2OC[C@H](C)N(Cc2nccs2)C[C@@H]1C	inactive	inactive	inactive
C[C@H]1CN([C@@H](C)CO)C(=O)c2cc(-c3cccc(C(=O)N(C)C)c3)cnc2O[C@@H]1CN(C)S(=O)(=O)c1ccc(F)cc1	inactive	inactive	inactive
CC1(C)C=C(C(=O)N2CCOCC2)C(C)(C)N1	inactive	inactive	inactive
N[C@@H](c1ccccc1)c1cc2ccccc2cn1	inactive	inactive	inactive
COc1ccc(CN(C)C[C@@H]2OCCCC[C@@H](C)Oc3ccc(NS(=O)(=O)c4ccccc4)cc3C(=O)N([C@@H](C)CO)C[C@H]2C)cc1	inactive	inactive	inactive
Cc1noc(C)c1S(=O)(=O)Nc1cccc2c1O[C@@H](CN(C)S(=O)(=O)c1ccc(F)cc1)[C@@H](C)CN([C@H](C)CO)C2=O	inactive	inactive	inactive
